# The supplement of paper PMC8728848
# This is one part of the list.
# Tests used:
# Experiment in all cases: glycan array binding signal (z-score within array); higher = stronger binding
# Settings in all cases: glycan notation: IUPAC condensed, linker removed
# [1] = molecular target: Gal6S(b1-4)Glc6S
# Summary of the method: (§1)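 Negative Z-scores can be read as non-binding. The Z-score is calculated within each array and then averaged across arrays of one protein sequence at different concentrations or buffers and across linkers. Arrays, 3228 in all, were curated from the Consortium for Functional Glycomics database and kept only where the protein sequence was available.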
# [2] = molecular target: Gal6S(b1-4)GlcNAc
# Summary of the method: as §1
# [3] = molecular target: Gal6S(b1-4)GlcNAc6S
# Summary of the method: as §1
# [4] = molecular target: GalNAc(a1-3)Gal
# Summary of the method: as §1
# [5] = molecular target: GalNAc(a1-3)GalNAc
# Summary of the method: as §1
# [6] = molecular target: GalNAc(a1-3)GalNAc(a1-3)Gal(a1-4)Gal(b1-4)GlcNAc
# Summary of the method: as §1
# [7] = molecular target: GalNAc(a1-3)GalNAc(b1-3)Gal(a1-4)Gal(b1-4)Glc
# Summary of the method: as §1
# [8] = molecular target: GalNAc(b1-3)Gal
# Summary of the method: as §1
# [9] = molecular target: GalNAc(b1-3)Gal(a1-4)Gal(b1-4)GlcNAc
# Summary of the method: as §1
# [10] = molecular target: GalNAc(b1-3)Gal(a1-4)Gal(b1-4)GlcNAc(b1-3)Gal(b1-4)Glc
# Summary of the method: as §1
# [11] = molecular target: GalNAc(b1-3)Gal(a1-6)Gal(b1-4)Glc
# Summary of the method: as §1
# [12] = molecular target: GalNAc(b1-3)GalNAc
# Summary of the method: as §1
# [13] = molecular target: GalNAc(b1-3)GlcNAc
# Summary of the method: as §1
# [14] = molecular target: GalNAc(b1-4)Gal(b1-4)Glc
# Summary of the method: as §1
# [15] = molecular target: GalNAc(b1-4)GlcNAc
# Summary of the method: as §1
# [16] = molecular target: GalNAc(b1-4)GlcNAc(b1-2)Man
# Summary of the method: as §1
# [17] = molecular target: GalNAc(b1-4)GlcNAc(b1-2)Man(a1-3)[GalNAc(b1-4)GlcNAc(b1-2)Man(a1-6)]Man(b1-4)GlcNAc(b1-4)GlcNAc
# Summary of the method: as §1
# [18] = molecular target: GalNAc(b1-4)GlcNAc(b1-3)GalNAc(b1-4)GlcNAc
# Summary of the method: as §1
# [19] = molecular target: GalNAc(b1-4)GlcNAc6S
# Summary of the method: as §1
# [20] = molecular target: GalNAc(b1-6)GalNAc
# Summary of the method: as §1
# [21] = molecular target: GalNAc3S(b1-4)GlcNAc
# Summary of the method: as §1
# [22] = molecular target: GalNAc3S(b1-4)GlcNAc3S
# Summary of the method: as §1
# [23] = molecular target: GalNAc3S(b1-4)[Fuc(a1-3)]GlcNAc
# Summary of the method: as §1
# [24] = molecular target: GalNAc4S6S(b1-4)GlcNAc
# Summary of the method: as §1
# [25] = molecular target: GalNAc6S(b1-4)GlcNAc
# Summary of the method: as §1
# [26] = molecular target: Glc(a1-4)Glc
# Summary of the method: as §1
# [27] = molecular target: Glc(a1-4)Glc(a1-4)Glc(a1-4)Glc
# Summary of the method: as §1
# [28] = molecular target: Glc(a1-6)Glc(a1-6)Glc
# Summary of the method: as §1
# [29] = molecular target: Glc(a1-6)Glc(a1-6)Glc(a1-6)Glc
# Summary of the method: as §1
# [30] = molecular target: Glc(b1-4)Glc
# Summary of the method: as §1
# [31] = molecular target: Glc(b1-6)Glc
# Summary of the method: as §1
# [32] = molecular target: GlcA(b1-3)Gal
# Summary of the method: as §1
# [33] = molecular target: GlcA(b1-3)GlcNAc
# Summary of the method: as §1
# [34] = molecular target: GlcA(b1-6)Gal
# Summary of the method: as §1
# [35] = molecular target: GlcA3S(b1-3)Gal(b1-4)GlcNAc(b1-2)Man
# Summary of the method: as §1
# [36] = molecular target: GlcA3S(b1-3)Gal(b1-4)GlcNAc(b1-3)Gal(b1-4)Glc
# Summary of the method: as §1
# [37] = molecular target: GlcNAc(a1-3)Gal(b1-4)GlcNAc
# Summary of the method: as §1
# [38] = molecular target: GlcNAc(a1-4)Gal(b1-3)GlcNAc
# Summary of the method: as §1
# [39] = molecular target: GlcNAc(a1-4)Gal(b1-4)GalNAc
# Summary of the method: as §1
# [40] = molecular target: GlcNAc(a1-4)Gal(b1-4)GlcNAc
# Summary of the method: as §1
# [41] = molecular target: GlcNAc(a1-4)Gal(b1-4)GlcNAc(b1-3)Gal(b1-4)Glc
# Summary of the method: as §1
# [42] = molecular target: GlcNAc(a1-4)Gal(b1-4)GlcNAc(b1-3)Gal(b1-4)GlcNAc
# Summary of the method: as §1
# [43] = molecular target: GlcNAc(a1-4)Gal(b1-4)GlcNAc(b1-3)Gal(b1-4)GlcNAc(b1-3)Gal(b1-4)GlcNAc
# Summary of the method: as §1
# [44] = molecular target: GlcNAc(a1-4)Gal(b1-4)GlcNAc(b1-3)Gal(b1-4)[Fuc(a1-3)]GlcNAc(b1-3)Gal(b1-4)[Fuc(a1-3)]GlcNAc
# Summary of the method: as §1
# [45] = molecular target: GlcNAc(a1-6)Gal(b1-4)GlcNAc
# Summary of the method: as §1
binder,measurement,setting,value
"Langerin K313I (Homo sapiens), Q9UJ71 (protein) STLNAQIPELKSDLEKASALNTKIRALQGSLENMSKLLKRQNDILQVVSQGWKYFKGNFYYFSLIPKTWYSAEQFCVSRNSHLTSVTSESEQEFLYKTAGGLIYWIGLTKAGMEGDWSWVDDTPFNKVQSARFWIPGEPNNAGNNEHCGNIKAPSLQAWNDAPCDITFLFICKRPYVPSEP",glycan array binding signal (z-score),[1],-0.292
same,glycan array binding signal (z-score),[2],-0.376
same,glycan array binding signal (z-score),[3],-0.368
same,glycan array binding signal (z-score),[4],-0.338
same,glycan array binding signal (z-score),[5],-0.399
same,glycan array binding signal (z-score),[6],-0.387
same,glycan array binding signal (z-score),[7],-0.396
same,glycan array binding signal (z-score),[8],-0.374
same,glycan array binding signal (z-score),[9],-0.29
same,glycan array binding signal (z-score),[10],-0.34
same,glycan array binding signal (z-score),[11],-0.302
same,glycan array binding signal (z-score),[12],3.83
same,glycan array binding signal (z-score),[13],-0.336
same,glycan array binding signal (z-score),[14],-0.117
same,glycan array binding signal (z-score),[15],-0.336
same,glycan array binding signal (z-score),[16],-0.387
same,glycan array binding signal (z-score),[17],-0.179
same,glycan array binding signal (z-score),[18],-0.373
same,glycan array binding signal (z-score),[19],-0.383
same,glycan array binding signal (z-score),[20],-0.384
same,glycan array binding signal (z-score),[21],-0.382
same,glycan array binding signal (z-score),[22],-0.348
same,glycan array binding signal (z-score),[23],0.038
same,glycan array binding signal (z-score),[24],-0.408
same,glycan array binding signal (z-score),[25],-0.405
same,glycan array binding signal (z-score),[26],-0.263
same,glycan array binding signal (z-score),[27],-0.025
same,glycan array binding signal (z-score),[28],-0.215
same,glycan array binding signal (z-score),[29],0.03
same,glycan array binding signal (z-score),[30],-0.131
same,glycan array binding signal (z-score),[31],-0.119
same,glycan array binding signal (z-score),[32],-0.358
same,glycan array binding signal (z-score),[33],-0.334
same,glycan array binding signal (z-score),[34],-0.191
same,glycan array binding signal (z-score),[35],-0.331
same,glycan array binding signal (z-score),[36],-0.268
same,glycan array binding signal (z-score),[37],-0.393
same,glycan array binding signal (z-score),[38],-0.33
same,glycan array binding signal (z-score),[39],-0.074
same,glycan array binding signal (z-score),[40],-0.289
same,glycan array binding signal (z-score),[41],-0.289
same,glycan array binding signal (z-score),[42],-0.281
same,glycan array binding signal (z-score),[43],-0.291
same,glycan array binding signal (z-score),[44],0.379
same,glycan array binding signal (z-score),[45],-0.352
